According to PubChem BioAssay AID1347073 (National Center for Advancing Translational Sciences (NCATS), 2019):
The whole screen tested about 45,000 compounds, of which about 200 (0.44%) were called active. Inconclusive means that the source gave no clear call. Such entries were picked first, then a sample of the others. Calls follow the shape of the dose curve; as a rule, active = well fitted activation curve with a large enough effect; inconclusive = small, poorly fitted or top-dose-only effect; inactive = no such curve, though single readings can be large or run the other way. A potency beside an inconclusive call is a rough fit, not a confirmed value.
Potency is read from the fitted curve at half-maximal effect; tags tell the direction and shape of the fitted curve.

Assay: qHTS of TDP-43 Inhibitors: NCGC Sytravon Library Screen; also: nearly all actives have a fitted effect of over 55% in size; as to growth rescue (activation): 0% is about no effect
Conditions: yeast TDP-43 toxicity rescue, BacTiter-Glo growth, 24 h; growth rescue (activation): at 46.1 µM (top of the series)
How it was run: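 TDP-43-expressing yeast, pregrown in raffinose, seeded at OD600 0.02 in galactose medium with compound for 24 hr at 30 deg C. Growth read by BacTiter-Glo luminescence, so rescue of toxicity appears as activation.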
In the case of `C=CCOc1ccc2c(CC)cc(=O)oc2c1C`, the Potency is reported as inconclusive: 20 µM [activator, single point].
For `COc1ccc(C(=O)N/C=C/n2cnc3cc(C(F)(F)F)ccc32)cc1`, the Potency was inconclusive: 35.5 µM [activator, partial curve, poor fit].
With `Cc1ccc(-c2[nH]ncc2CNCCc2cnn(-c3ccccc3)c2)cc1C` the Potency was inconclusive: 35.5 µM [activator, single point].
For `COc1ccc(C2C=C(Nc3ccccc3)C(=O)N2c2ccccc2)cc1OC` (stereo not given), the Potency was inconclusive: 8.91 µM [activator, partial curve, poor fit].
With `COc1ccc(/C=C/C(=O)NCCOc2ccccc2OC)cc1` the Potency was inconclusive: 11.2 µM [activator, partial curve, poor fit].
In the case of `CC(C)c1ccc(N(C(=O)c2ccco2)C(C(=O)NC2CCCC2)c2cccnc2)cc1` (stereo not given), the “growth rescue (activation)” value is reported as inactive: 13.8%.
In the case of `CCC(C)N(C(=O)c1csnn1)C(C(=O)NC1CCCC1)c1c(F)cccc1Cl` (stereo not given), the “growth rescue (activation)” value is reported as inactive: 10.1%.
For `COC(=O)CSc1snnc1-c1ccc(F)cc1`, the Potency was inconclusive: 35.5 µM [activator, single point].
For `CC(C)(C)c1n[nH]c(=S)n(/N=C/c2cccs2)c1=O`, the “growth rescue (activation)” value was inactive: 20.7%.
With `CN(CCOc1ccc(Br)cc1)C(=O)CNC(=O)c1ccc2ccccc2c1` the Potency was inconclusive: 25.1 µM [activator, single point].
For `COc1ccc(-c2coc3c(C(=O)NCC4CC4)cccc23)c(C)c1`, the Potency was inconclusive: 20 µM [activator, single point].
With `O=C(/C=C/c1ccccc1Cl)N1CCN(c2ncccn2)CC1` the Potency was inconclusive: 11.2 µM [activator, partial curve, poor fit].
In the case of `CNC(=O)c1sc(=S)n(-c2ccc(OC)cc2)c1N`, the Potency is reported as inconclusive: 15.8 µM [activator, single point].
In the case of `COc1ccccc1CNC(=O)c1ccc2[nH]c(C)c(C)c2c1`, the Potency is reported as inconclusive: 10 µM [activator, single point].
For `Cc1cccc(NC(=O)CN2C(=O)C(c3ccccc3)=NC23CCC(C)CC3)c1` (stereo not given), the “growth rescue (activation)” value was inactive: 12.8%.
With `CCNC(=O)C1(C)CCN(C(=O)c2cc(OC)c(OC)c(OC)c2)C1` (stereo not given) the “growth rescue (activation)” value was inactive: 7.7%.
For `CC(C)c1cccc(-c2csc(C(O)c3cccc(Cl)c3)n2)c1` (stereo not given), the growth rescue (activation) was inconclusive: 32.1% [activator].
For `Cc1cc(C)c(C#N)c(SCC(O)COc2ccc(Br)cc2)n1` (stereo not given), the Potency was active: 12.6 µM.
For `COc1ccc(N2CCN(C(=O)C3CCN(C(=O)c4ccccc4Cl)CC3)CC2)cc1`, the “growth rescue (activation)” value was inactive: 9.74%.
With `CCC(C(=O)NCc1cc(OC)ccc1OC)n1nc(C)c2sc3ccccc3c2c1=O` (stereo not given) the “growth rescue (activation)” value was inactive: 9.54%.
